Experimental data published in the supplement of paper PMC8728848.
The list shows a part of the results.

Columns and labels:
Test in all cases: glycan array binding signal (z-score within array); higher = stronger binding
Settings in all cases: glycan notation: IUPAC condensed, linker removed; mutation: E41G
[1] = biological target: Neu5Ac(a2-3)Gal6S(b1-4)[Fuc(a1-3)]GlcNAc
Method in brief: (§1)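 The binding signal is a Z-score computed within each array. Data were drawn from 3228 arrays in the Consortium for Functional Glycomics database, restricted to those with a known protein sequence. Scores were averaged over arrays of the same protein sequence at different concentrations or buffers, and over linkers, and negative values can be taken as non-binding.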

Neu5Ac(a2-3)GalNAc = biological target: Neu5Ac(a2-3)GalNAc
Method in brief: as §1

[2] = biological target: Neu5Ac(a2-3)GalNAc(b1-4)GlcNAc
Method in brief: as §1

[3] = biological target: Neu5Ac(a2-3)[GalNAc(b1-4)]Gal(b1-4)Glc
Method in brief: as §1

[4] = biological target: Neu5Ac(a2-3)[GalNAc(b1-4)]Gal(b1-4)GlcNAc
Method in brief: as §1

[5] = biological target: Neu5Ac(a2-3)[GalNAc(b1-4)]Gal(b1-4)GlcNAc(b1-3)GalNAc
Method in brief: as §1

[6] = biological target: Neu5Ac(a2-3)[Neu5Ac(a2-6)]GalNAc
Method in brief: as §1

Neu5Ac(a2-6)Gal = biological target: Neu5Ac(a2-6)Gal
Method in brief: as §1

[7] = biological target: Neu5Ac(a2-6)Gal(b1-3)GlcNAc(b1-3)[Gal(b1-4)GlcNAc(b1-6)]Gal(b1-4)Glc
Method in brief: as §1

Neu5Ac(a2-6)Gal(b1-4)Glc = biological target: Neu5Ac(a2-6)Gal(b1-4)Glc
Method in brief: as §1

[8] = biological target: Neu5Ac(a2-6)Gal(b1-4)GlcNAc
Method in brief: as §1

[9] = biological target: Neu5Ac(a2-6)Gal(b1-4)GlcNAc(b1-2)Man
Method in brief: as §1

[10] = biological target: Neu5Ac(a2-6)Gal(b1-4)GlcNAc(b1-2)Man(a1-3)Man(b1-4)GlcNAc(b1-4)GlcNAc
Method in brief: as §1

[11] = biological target: Neu5Ac(a2-6)Gal(b1-4)GlcNAc(b1-2)Man(a1-3)[Gal(b1-4)GlcNAc(b1-2)Man(a1-6)]Man(b1-4)GlcNAc(b1-4)GlcNAc
Method in brief: as §1

[12] = biological target: Neu5Ac(a2-6)Gal(b1-4)GlcNAc(b1-2)Man(a1-3)[GlcNAc(b1-4)][Neu5Ac(a2-6)Gal(b1-4)GlcNAc(b1-2)Man(a1-6)]Man(b1-4)GlcNAc(b1-4)GlcNAc
Method in brief: as §1

[13] = biological target: Neu5Ac(a2-6)Gal(b1-4)GlcNAc(b1-2)Man(a1-3)[Man(a1-6)]Man(b1-4)GlcNAc(b1-4)GlcNAc
Method in brief: as §1

[14] = biological target: Neu5Ac(a2-6)Gal(b1-4)GlcNAc(b1-2)Man(a1-3)[Neu5Ac(a2-3)Gal(b1-4)GlcNAc(b1-2)Man(a1-6)]Man(b1-4)GlcNAc(b1-4)GlcNAc
Method in brief: as §1

[15] = biological target: Neu5Ac(a2-6)Gal(b1-4)GlcNAc(b1-2)Man(a1-3)[Neu5Ac(a2-6)Gal(b1-4)GlcNAc(b1-2)Man(a1-6)]Man(b1-4)GlcNAc(b1-4)GlcNAc
Method in brief: as §1

[16] = biological target: Neu5Ac(a2-6)Gal(b1-4)GlcNAc(b1-2)Man(a1-3)[Neu5Ac(a2-6)Gal(b1-4)GlcNAc(b1-2)Man(a1-6)]Man(b1-4)GlcNAc(b1-4)[Fuc(a1-6)]GlcNAc
Method in brief: as §1

[17] = biological target: Neu5Ac(a2-6)Gal(b1-4)GlcNAc(b1-2)Man(a1-6)Man(b1-4)GlcNAc(b1-4)GlcNAc
Method in brief: as §1

[18] = biological target: Neu5Ac(a2-6)Gal(b1-4)GlcNAc(b1-2)Man(a1-6)[Gal(b1-4)GlcNAc(b1-2)Man(a1-3)]Man(b1-4)GlcNAc(b1-4)GlcNAc
Method in brief: as §1

[19] = biological target: Neu5Ac(a2-6)Gal(b1-4)GlcNAc(b1-2)Man(a1-6)[GlcNAc(b1-2)Man(a1-3)]Man(b1-4)GlcNAc(b1-4)GlcNAc
Method in brief: as §1

[20] = biological target: Neu5Ac(a2-6)Gal(b1-4)GlcNAc(b1-2)Man(a1-6)[Man(a1-3)]Man(b1-4)GlcNAc(b1-4)GlcNAc
Method in brief: as §1

[21] = biological target: Neu5Ac(a2-6)Gal(b1-4)GlcNAc(b1-2)[Neu5Ac(a2-6)Gal(b1-4)GlcNAc(b1-4)]Man(a1-3)[GlcNAc(b1-4)][Neu5Ac(a2-6)Gal(b1-4)GlcNAc(b1-2)[Neu5Ac(a2-6)Gal(b1-4)GlcNAc(b1-6)]Man(a1-6)]Man(b1-4)GlcNAc(b1-4)GlcNAc
Method in brief: as §1

[22] = biological target: Neu5Ac(a2-6)Gal(b1-4)GlcNAc(b1-2)[Neu5Ac(a2-6)Gal(b1-4)GlcNAc(b1-4)]Man(a1-3)[GlcNAc(b1-4)][Neu5Ac(a2-6)Gal(b1-4)GlcNAc(b1-4)Man(a1-6)]Man(b1-4)GlcNAc(b1-4)GlcNAc
Method in brief: as §1

[23] = biological target: Neu5Ac(a2-6)Gal(b1-4)GlcNAc(b1-2)[Neu5Ac(a2-6)Gal(b1-4)GlcNAc(b1-6)]Man(a1-6)[Neu5Ac(a2-6)Gal(b1-4)GlcNAc(b1-2)Man(a1-3)][GlcNAc(b1-4)]Man(b1-4)GlcNAc(b1-4)GlcNAc
Method in brief: as §1

[24] = biological target: Neu5Ac(a2-6)Gal(b1-4)GlcNAc(b1-3)Gal(b1-3)GlcNAc
Method in brief: as §1

[25] = biological target: Neu5Ac(a2-6)Gal(b1-4)GlcNAc(b1-3)Gal(b1-4)GlcNAc
Method in brief: as §1

[26] = biological target: Neu5Ac(a2-6)Gal(b1-4)GlcNAc(b1-3)Gal(b1-4)GlcNAc(b1-2)Man(a1-3)[Neu5Ac(a2-6)Gal(b1-4)GlcNAc(b1-3)Gal(b1-4)GlcNAc(b1-2)Man(a1-6)]GalNAc
Method in brief: as §1

[27] = biological target: Neu5Ac(a2-6)Gal(b1-4)GlcNAc(b1-3)Gal(b1-4)GlcNAc(b1-3)Gal(b1-4)GlcNAc
Method in brief: as §1

[28] = biological target: Neu5Ac(a2-6)Gal(b1-4)GlcNAc(b1-3)Gal(b1-4)GlcNAc(b1-3)Gal(b1-4)GlcNAc(b1-2)Man(a1-3)[Neu5Ac(a2-6)Gal(b1-4)GlcNAc(b1-3)Gal(b1-4)GlcNAc(b1-3)Gal(b1-4)GlcNAc(b1-2)Man(a1-6)]GalNAc
Method in brief: as §1

[29] = biological target: Neu5Ac(a2-6)Gal(b1-4)GlcNAc(b1-3)Gal(b1-4)GlcNAc(b1-3)GalNAc
Method in brief: as §1

[30] = biological target: Neu5Ac(a2-6)Gal(b1-4)GlcNAc(b1-3)Gal(b1-4)GlcNAc(b1-3)[Neu5Ac(a2-6)Gal(b1-4)GlcNAc(b1-3)Gal(b1-4)GlcNAc(b1-6)]GalNAc
Method in brief: as §1

[31] = biological target: Neu5Ac(a2-6)Gal(b1-4)GlcNAc(b1-3)Gal(b1-4)GlcNAc(b1-6)[Gal(b1-3)]GalNAc
Method in brief: as §1

[32] = biological target: Neu5Ac(a2-6)Gal(b1-4)GlcNAc(b1-3)Gal(b1-4)[Fuc(a1-3)]GlcNAc(b1-3)Gal(b1-4)[Fuc(a1-3)]GlcNAc
Method in brief: as §1

[33] = biological target: Neu5Ac(a2-6)Gal(b1-4)GlcNAc(b1-3)GalNAc
Method in brief: as §1

[34] = biological target: Neu5Ac(a2-6)Gal(b1-4)GlcNAc(b1-3)[Neu5Ac(a2-6)Gal(b1-4)GlcNAc(b1-6)]GalNAc
Method in brief: as §1

[35] = biological target: Neu5Ac(a2-6)Gal(b1-4)GlcNAc(b1-6)GalNAc
Method in brief: as §1

[36] = biological target: Neu5Ac(a2-6)Gal(b1-4)GlcNAc(b1-6)[Gal(b1-3)GlcNAc(b1-3)]Gal(b1-4)Glc
Method in brief: as §1

[37] = biological target: Neu5Ac(a2-6)Gal(b1-4)GlcNAc(b1-6)[Gal(b1-3)]GalNAc
Method in brief: as §1

[38] = biological target: Neu5Ac(a2-6)Gal(b1-4)GlcNAc6S
Method in brief: as §1

Neu5Ac(a2-6)GalNAc = biological target: Neu5Ac(a2-6)GalNAc
Method in brief: as §1

[39] = biological target: Neu5Ac(a2-6)GalNAc(b1-4)GlcNAc
Method in brief: as §1

[40] = biological target: Neu5Ac(a2-6)GalNAc(b1-4)GlcNAc6S
Method in brief: as §1

[41] = biological target: Neu5Ac(a2-6)GlcNAc(b1-4)GlcNAc
Method in brief: as §1

B1: CVN-E41G (protein)
chain: MHHHHHHENLYFQSGNFSQACYNSAIQGSVLTSTCIRTNGGYNTSSIDLNSVIGNVDGSLKWQGSNFIETCRNTQLAGSSELAAECKTRAQQFVSTKINLDDHIAAIDGTLKYE
Question: For B1, which “glycan array binding signal (z-score)” value [1] is on record?
Answer: -0.196

Question: What about the “glycan array binding signal (z-score)” value (Neu5Ac(a2-3)GalNAc) of the same binder?
Answer: -0.164

Question: And the “glycan array binding signal (z-score)” value [2]?
Answer: -0.147

Question: What about the “glycan array binding signal (z-score)” value [3] of the same binder?
Answer: -0.177

Question: And the “glycan array binding signal (z-score)” value [4]?
Answer: -0.187

Question: And the “glycan array binding signal (z-score)” value [5]?
Answer: -0.159

Question: And the “glycan array binding signal (z-score)” value [6]?
Answer: -0.12

Question: And the “glycan array binding signal (z-score)” value (Neu5Ac(a2-6)Gal)?
Answer: -0.168

Question: What about the “glycan array binding signal (z-score)” value [7] of the same binder?
Answer: -0.152

Question: What about the “glycan array binding signal (z-score)” value (Neu5Ac(a2-6)Gal(b1-4)Glc) of the same binder?
Answer: -0.153

Question: And the “glycan array binding signal (z-score)” value [8]?
Answer: -0.163

Question: What about the “glycan array binding signal (z-score)” value [9] of the same binder?
Answer: -0.159

Question: And the “glycan array binding signal (z-score)” value [10]?
Answer: -0.172

Question: And the “glycan array binding signal (z-score)” value [11]?
Answer: -0.149

Question: What about the “glycan array binding signal (z-score)” value [12] of the same binder?
Answer: -0.147

Question: What about the “glycan array binding signal (z-score)” value [13] of the same binder?
Answer: -0.159

Question: And the “glycan array binding signal (z-score)” value [14]?
Answer: -0.146

Question: And the “glycan array binding signal (z-score)” value [15]?
Answer: -0.15

Question: What about the “glycan array binding signal (z-score)” value [16] of the same binder?
Answer: -0.065

Question: What about the “glycan array binding signal (z-score)” value [17] of the same binder?
Answer: -0.156

Question: And the “glycan array binding signal (z-score)” value [18]?
Answer: -0.16

Question: What about the “glycan array binding signal (z-score)” value [19] of the same binder?
Answer: -0.07

Question: And the “glycan array binding signal (z-score)” value [20]?
Answer: -0.166

Question: And the “glycan array binding signal (z-score)” value [21]?
Answer: -0.163

Question: And the “glycan array binding signal (z-score)” value [22]?
Answer: -0.14

Question: And the “glycan array binding signal (z-score)” value [23]?
Answer: -0.139

Question: And the “glycan array binding signal (z-score)” value [24]?
Answer: -0.168

Question: What about the “glycan array binding signal (z-score)” value [25] of the same binder?
Answer: -0.191

Question: And the “glycan array binding signal (z-score)” value [26]?
Answer: -0.13

Question: And the “glycan array binding signal (z-score)” value [27]?
Answer: -0.177

Question: What about the “glycan array binding signal (z-score)” value [28] of the same binder?
Answer: -0.112

Question: What about the “glycan array binding signal (z-score)” value [29] of the same binder?
Answer: -0.148

Question: What about the “glycan array binding signal (z-score)” value [30] of the same binder?
Answer: -0.14

Question: What about the “glycan array binding signal (z-score)” value [31] of the same binder?
Answer: -0.149

Question: And the “glycan array binding signal (z-score)” value [32]?
Answer: -0.008

Question: What about the “glycan array binding signal (z-score)” value [33] of the same binder?
Answer: -0.016

Question: What about the “glycan array binding signal (z-score)” value [34] of the same binder?
Answer: -0.147

Question: And the “glycan array binding signal (z-score)” value [35]?
Answer: -0.126

Question: What about the “glycan array binding signal (z-score)” value [36] of the same binder?
Answer: -0.167

Question: What about the “glycan array binding signal (z-score)” value [37] of the same binder?
Answer: -0.158

Question: And the “glycan array binding signal (z-score)” value [38]?
Answer: -0.169

Question: What about the “glycan array binding signal (z-score)” value (Neu5Ac(a2-6)GalNAc) of the same binder?
Answer: -0.155

Question: What about the “glycan array binding signal (z-score)” value [39] of the same binder?
Answer: -0.2

Question: And the “glycan array binding signal (z-score)” value [40]?
Answer: -0.127

Question: And the “glycan array binding signal (z-score)” value [41]?
Answer: -0.157
